# Results: the BET-seq Pho4 binding data (Le et al. 2018)
# The list shows a part of the results. Values were computed here from the reads of four pooled replicates and scatter widely.
# Molecular target: T1, Pho4 (S. cerevisiae) (UniProt P07270)
# T1 sequence: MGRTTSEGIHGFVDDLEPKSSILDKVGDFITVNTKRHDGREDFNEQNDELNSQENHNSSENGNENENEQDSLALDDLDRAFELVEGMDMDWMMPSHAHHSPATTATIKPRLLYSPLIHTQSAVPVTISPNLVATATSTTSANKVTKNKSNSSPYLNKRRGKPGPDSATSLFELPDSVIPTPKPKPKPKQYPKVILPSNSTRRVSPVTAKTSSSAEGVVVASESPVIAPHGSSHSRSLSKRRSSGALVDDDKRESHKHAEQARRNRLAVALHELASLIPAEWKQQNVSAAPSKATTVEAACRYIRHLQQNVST
# Experiment: relative binding free energy (BET-seq); higher = weaker binding
# Details: reference: library average
row,Sequence,relative binding free energy [kcal/mol]
1,TGTTGCACGTGAGAGA,0.25
2,CTGAGCACGTGGGTGA,-0.31
3,AGATACACGTGGTTAA,0.09
4,GGTTTCACGTGTTGCC,0.38
5,GTTGCCACGTGGTAAG,-0.16
6,TGGTACACGTGAGTCG,0.33
7,TCGCGCACGTGGGAGG,-0.2
8,GGGTACACGTGGCCGT,0.16
9,GTAGCCACGTGTGTAG,-0.18
10,AGGGGCACGTGGCTTA,-0.22
11,AGTTTCACGTGTGGTA,0.26
12,TGTTTCACGTGAAATC,0.51
13,AGGTCCACGTGGGATT,0.08
14,GGTGACACGTGTGGTA,0.15
15,ATGTTCACGTGGGGCA,0.13
16,TATATCACGTGCGTAG,0.1
17,GGGGGCACGTGAGATT,0.25
18,GAGGACACGTGTAGAG,0.15
19,AATTCCACGTGGTGTT,-0.04
20,ATTAACACGTGGTCGG,0.05
21,AATGTCACGTGGAATG,0.08
22,TGGTCCACGTGTAAGG,0.24
23,TTTATCACGTGACAGG,0.3
24,CGGTGCACGTGTCGGG,-0.02
25,GTTCACACGTGTTAGG,0.16

row,Sequence,relative binding free energy [kcal/mol]
1,TGGGACACGTGTGTCT,0.08
2,TGAAGCACGTGTAATT,0.1
3,AGATTCACGTGTTCAG,0.34
4,ATACTCACGTGGTGGT,0.15
5,AGGGACACGTGGCGTA,-0.16
6,ATATTCACGTGAATGA,0.34
7,TTGGTCACGTGTGAAA,0.27
8,GTTTCCACGTGTTCTT,0.1
9,TTTCACACGTGATTGA,0.31
10,GTTCTCACGTGATATT,0.36
11,TGGTCCACGTGAGTGT,0.16
12,TGTGACACGTGGGAGA,-0.08
13,TATCACACGTGGTTTT,0.17
14,ACATGCACGTGAGGGT,0.04
15,TGCATCACGTGGTTTA,0.09
16,TTTGGCACGTGGTATA,-0.11
17,GCCTACACGTGGGTGT,0.04
18,TTGGCCACGTGTCTGG,-0.03
19,AATTTCACGTGGTCGT,0.3
20,AGAATCACGTGGGGGT,0.09
21,TTTATCACGTGCGGAT,0.16
22,TTTTCCACGTGGGATA,-0.07
23,ACGGGCACGTGGCTGG,-0.26
24,TCGGTCACGTGTCGGG,0.16
25,GGTGCCACGTGCGTTG,-0.23

row,Sequence,relative binding free energy [kcal/mol]
1,GATGCCACGTGGGCGG,-0.14
2,GTCATCACGTGGGTGG,0.11
3,ATAATCACGTGCTAGG,0.21
4,TTTTACACGTGTGTGA,0.13
5,ATTGACACGTGTATAG,0.06
6,TCTTTCACGTGTGGTC,0.34
7,GTATTCACGTGGCTAT,0.35
8,AAATTCACGTGTTGTG,0.1
9,AGTCTCACGTGAGGAG,0.3
10,GATGTCACGTGGGTCG,0.04
11,GTTGACACGTGTTTGT,0.1
12,ATTAACACGTGTGTTC,0
13,ATGGCCACGTGGTTGG,0
14,GATGTCACGTGTAAGA,0.35
15,AGGGACACGTGCGAGG,0
16,CAGGGCACGTGTGGGA,-0.14
17,ATACTCACGTGTGTGT,0.06
18,AAGAGCACGTGTTGGG,-0.15
19,GTAAGCACGTGATGTT,0.21
20,ATAGGCACGTGAGGGC,0.11
21,TAGGTCACGTGAAGTA,0.37
22,GGAGTCACGTGCTGGA,0.24
23,ATATGCACGTGGCGTA,-0.27
